From the RNAGym collection of RNA variant scans (doi:10.7554/elife.90254)
Read counts are not given, so values of variants with three or more changes are uncertain.

B1: LINE1-mini (parent)
chain: GGCAGAGCUCAACACAGCGUGGCAAAGUGGCUGUGGCUAGACUGCC

Variants of: B1
Experiment: self-cleavage, relative activity (ratio to wild type); higher = more cleavage; in vitro, sequencing; the parent is a self-cleaving ribozyme

| Variant | self-cleavage |
| --- | --- |
| C23G G35U G36U | 0.07 |
| G2A U9A U28A | 0.67 |
| A14U A41U C46U | 0.03 |
| G7U C13U U20A U32G C37A | 0.08 |
| A25C A39G C42A | 0.19 |
| G2A C8U A12G G21U G22C G29C C31G A39U A41U | 0.03 |
| G1A C37U C42U | 0.04 |
| A4U C18U A24C U32A G33C G44C | 0.02 |
| G1U A25C A26U | 0.05 |
| C13U G33U G36U | 0.02 |
| A4G G5U G19C G30C U38A A39U G44C | 0.05 |
| C10A G22A G33C | 0.02 |
| A6C G22U U38G G40U | 0.04 |
| G5U A11C G35C U38C | 0.03 |
| C15A G19A G29U | 0.09 |
| G1U C8G U32C | 0.01 |
| A11U A12G A24U | 0.01 |
| A6C C10A G19A C23A A24C G33U G35U | 0.02 |
| G5A A24C G29U | 0.05 |
| G17A G21U C45G | 0.05 |
| U20A C23A G40C | 0.22 |
| C15U G40A C42A | 0.16 |
| C10U U20A G40A | 0.01 |
| C3U G21U A26U U32G | 0.1 |

| Variant | self-cleavage |
| --- | --- |
| C3G U9G A26C | 0.76 |
| G1A C8A U20G C23U G27U | 0.26 |
| A4C A16U C23U U28A C37A | 0.02 |
| C13U C18G C31A | 0.08 |
| C3G G7A G22A G30C C45A | 0.16 |
| C18A G21C G36U | 0.11 |
| C13G G22C C45U | 0.49 |
| G2U A14C C15U | 0 |
| G2A G5U G19C G36U | 0.19 |
| C23A A26G A41G | 0.48 |
| U9G C31U G44U | 0.01 |
| G1C C10G C13U G30U G44A | 0 |
| C3G A4U G5U C23U A41U U43G | 0.05 |
| G5U G7U A24C G30C G33C U34A | 0.03 |
| G7A A11U A14U C18U G27C G29U G40U | 0.01 |
| C15U U34A G36U | 0.02 |
| C3A C37U C42G | 0.07 |
| U9G A16C G35A | 0.02 |
| U9A G17A G19U A24C | 0.06 |
| C10U G22U A25U G30U | 0.6 |
| A6C C8A A11G A16U C46A | 0.02 |
| A11U G17U G36U C46U | 0 |
| G2A C37U A39G C46A | 0.12 |
| A6U A26G G29C U43A | 0.31 |

| Variant | self-cleavage |
| --- | --- |
| G22A G35C G36U U38C | 0.07 |
| G5C G7A G17A | 0.03 |
| G1U U38C A39U | 0.16 |
| G2U G7C A16G G19A C31A | 0.03 |
| C15A C23U G35U | 0.11 |
| G7A A24C C46A | 0.07 |
| A12U A14G G21A G44C | 0.1 |
| U9G A14U C18G G35C | 0.12 |
| G5A C13U G40C | 0.06 |
| A12C G22U G35U U38A | 0.02 |
| G5A C18A C23U A26G | 0.03 |
| A12U G22A G30A G35C | 0.01 |
| A11G G36A G44U | 0.02 |
| A6C C18U A39G | 0.07 |
| C10A C18U C23G G33C C42A | 0 |
| G5C G17A G21A G22C A41G C46A | 0.08 |
| C10A G17C G22A G40A U43A | 0.03 |
| A4U C15U U20C C23G | 0.56 |
| G1A G44C C45A | 0.26 |
| G2C G22C A24G G29U | 0.09 |
| G5U G36A G40U G44U | 0.07 |
| C13U U38G C46G | 0.01 |
| A12G C23A G35U | 0.02 |
| A6C C8G A14G G36U | 0.03 |

| Variant | self-cleavage |
| --- | --- |
| A4C G7U C15A | 0.11 |
| A4C A16C G22U U28C G29U U32G C46A | 0.06 |
| C3A G7U C13A G33U | 0.08 |
| G5A A25C U28C G29U G36C | 0.03 |
| A16U G22A A24G C31G U34G | 0.01 |
| A16G C18U U20C G35U A41C | 0.02 |
| C3A A14G G17U G22C C31G G44A | 0.02 |
| G7C A26G C37U C42U U43G | 0.06 |
| G7A U9C C13G G30C U32C | 0.02 |
| G2A C3U G21A G29U G30A C42A G44U | 0.24 |
| C8A A14U G27U | 0.02 |
| C8G C10U C18U G21U | 0.05 |
| C3U A14C A16G U34G C37U | 0.01 |
| G1C G17C U20C | 0.05 |
| G2A C31G U34A | 0.15 |
| C10G G19A G33U | 0.01 |
| C18G A26U G30A | 1.99 |
| G1C G7A C23G G33C | 0.06 |
| G2C C3U C37A | 0.03 |
| A6G G17C G22U G36C G44C | 0.02 |
| C8A C23A C37A U43A | 0.16 |
| G17A G22U U43C | 0.02 |
| C3U G30U G44U | 0 |
| U20G A25U G30A U32G G40U | 0.03 |

| Variant | self-cleavage |
| --- | --- |
| C3G A4U A41G | 0.02 |
| C13U A16U G30A U38C C45U | 0.04 |
| G5U C31A C42A C46A | 0.03 |
| G2A C8A A24U | 1.21 |
| A6G A11G U38C | 0 |
| A16U C23A G35U A39C | 0.01 |
| C3G G30U C37G | 0.12 |
| G7A U20G G27U A41G | 0.07 |
| C15G G27A U28A A39U G40U | 0.01 |
| A6C A25G G30U | 0.59 |
| A4G C23U G33A G35A U38C | 0.07 |
| A26G G29U C31A | 0.3 |
| C10G C31G G33U | 0 |
| C18U C23U U38C | 2.16 |
| C18G G40C C42G C45A | 0.02 |
| A4G G30U U32A | 0.04 |
| G7U C10G A16C C37U | 0.03 |
| G7U C10A C18A G40U | 0 |
| A6G A12C A24G G30A | 0.01 |
| A14U G21U C23A | 0.81 |
| U9G U20A A41G | 0 |
| C3U A11U U32C G40C | 0.02 |
| C3G U20A G29A G33C | 0.09 |
| G7U A14G G19A | 0.07 |

| Variant | self-cleavage |
| --- | --- |
| C3A G17U C31A G36C | 0.11 |
| G1C A4U G7U C45A | 0 |
| A4C C10A A24G G36C | 0.03 |
| C10A A11C A25C G27C | 0.02 |
| G7U A14U U20G A24C A41G | 0.03 |
| C13A C18A G33C | 0.01 |
| U20A G30A G44U | 0.09 |
| G19A G29A C31U G35U | 0.04 |
| A11C C23U G36U C37U U38A G40A C45A | 0 |
| A6G C10G A25U C42A | 0 |
| G19A G36C U38G | 0.02 |
| G1U A26U G35C C37U C45U | 0 |
| A11U C13A U28A | 0.02 |
| A14C G17U G19U | 0.13 |
| C13U G19C C31U A39U | 0.03 |
| G5U A12C G19U U34A A41U C46U | 0.01 |
| A6C G30U C37A A39G | 0.03 |
| U38C A39C G44A | 0.07 |
| G1A C3U C13G G22U A24C G36C C42U U43G | 0.48 |
| U20A A25U C31G | 0.12 |
| G2U A16C C18A C46U | 0.01 |
| C13G C18A A25C G27U U32A G33U | 0.01 |
| U32A G33C U34A | 0.01 |
| G7C A12U G30U U34G G40U | 0.01 |

| Variant | self-cleavage |
| --- | --- |
| C8A A26C G30U U32C G40U | 0.11 |
| C10A C13U G30U | 0.06 |
| A4G G5A U20G C45G | 0.02 |
| G1U A11C G40C A41G | 0 |
| G1A U20C C23U | 0.41 |
| G1A G5U C10U C42U | 0.07 |
| G22U C23A U34C C42A | 0.09 |
| A6U A25U G40C C45U | 0.08 |
| G1A C10U A11C A12C C42U | 0.01 |
| C18A C37G G40A | 0.02 |
| A16U C18G U20G | 0.1 |
| C15A G17A G21C C42U C46A | 0.01 |
| U20G G29U G40C C42U | 0.07 |
| C3U C13U U28A G35A | 0.23 |
| A11U U28G G30C A39U | 0.01 |
| G21U A39G C42U | 0.18 |
| G2C C10A A16G G36U | 0 |
| C3A A14G G27U | 0.38 |
| A12G U20A A25G U32G G40A C46U | 0.01 |
| U20A C31A A41U U43G | 0.01 |
| G2A G7C G29C A39U U43C | 0.04 |
| A6U C10A A12G G19U | 0.01 |
| G21U U34C G40C | 0.02 |
